Assay results taken from patent US20250320305A1.
Numbering of substitutions follows the chain as printed.

Legend:
[1] = target: human CD40 expressed on cells (human), P25942; test: flow cytometry, primary human B cells
[2] = target: human Fibroblast Activation Protein (FAP) expressed on cells (human), Q12884; test: flow cytometry, NIH/3T3-huFAP cells

B1: P1AE2424, CD40 (P1AE0817) x FAP (P1AE1689) (4+1) with C-terminal crossfab fusion (bispecific antibody, human IgG1, kappa)
light 1: QVQLVQSGAEVKKPGASVKVSCKASGYTLTDYNMDWVRQAPGQGLEWIGDIYPNTGGTIYNQKFKGRVTMTIDTSTSTVYMELSSLRSEDTAVYYCTRFRGIHYAMDYWGQGTTVTVSSASVAAPSVFIFPPSDEQLKSGTASVVCLLNNFYPREAKVQWKVDNALQSGNSQESVTEQDSKDSTYSLSSTLTLSKADYEKHKVYACEVTHQGLSSPVTKSFNRGEC
light 2: DIVMTQTPLSLSVTPGQPASISCRSSQSLVHSNGNTFLHWYLQKPGQSPQLLIYTVSNRFSGVPDRFSGSGSGTDFTLKISRVEAEDVGVYFCSQTTHVPWTFGGGTKVEIKRTVAAPSVFIFPPSDRKLKSGTASVVCLLNNFYPREAKVQWKVDNALQSGNSQESVTEQDSKDSTYSLSSTLTLSKADYEKHKVYACEVTHQGLSSPVTKSFNRGEC
heavy 1: QVQLVQSGAEVKKPGASVKVSCKASGYSFTGYYIHWVRQAPGQSLEWMGRVIPNAGGTSYNQKFKGRVTLTVDKSISTAYMELSRLRSDDTAVYYCAREGIYWWGQGTTVTVSSASTKGPSVFPLAPSSKSTSGGTAALGCLVEDYFPEPVTVSWNSGALTSGVHTFPAVLQSSGLYSLSSVVTVPSSSLGTQTYICNVNHKPSNTKVDEKVEPKSCDGGGGSGGGGSQVQLVQSGAEVKKPGASVKVSCKASGYSFTGYYIHWVRQAPGQSLEWMGRVIPNAGGTSYNQKFKGRVTLTVDKSISTAYMELSRLRSDDTAVYYCAREGIYWWGQGTTVTVSSASTKGPSVFPLAPSSKSTSGGTAALGCLVEDYFPEPVTVSWNSGALTSGVHTFPAVLQSSGLYSLSSVVTVPSSSLGTQTYICNVNHKPSNTKVDEKV[… human IgG1 Fc with changes …]GGGGSGGGGSGGGGSGGGGSEIVLTQSPATLSLSPGERATLSCRASESVDNYGLSFINWFQQKPGQAPRLLIYGTSNRGSGIPARFSGSGSGTDFTLTISSLEPEDFAVYFCQQSNEVPYTFGGGTKVEIKSSASTKGPSVFPLAPSSKSTSGGTAALGCLVKDYFPEPVTVSWNSGALTSGVHTFPAVLQSSGLYSLSSVVTVPSSSLGTQTYICNVNHKPSNTKVDKKVEPKSC
heavy 2: QVQLVQSGAEVKKPGASVKVSCKASGYSFTGYYIHWVRQAPGQSLEWMGRVIPNAGGTSYNQKFKGRVTLTVDKSISTAYMELSRLRSDDTAVYYCAREGIYWWGQGTTVTVSSASTKGPSVFPLAPSSKSTSGGTAALGCLVEDYFPEPVTVSWNSGALTSGVHTFPAVLQSSGLYSLSSVVTVPSSSLGTQTYICNVNHKPSNTKVDEKVEPKSCDGGGGSGGGGSQVQLVQSGAEVKKPGASVKVSCKASGYSFTGYYIHWVRQAPGQSLEWMGRVIPNAGGTSYNQKFKGRVTLTVDKSISTAYMELSRLRSDDTAVYYCAREGIYWWGQGTTVTVSSASTKGPSVFPLAPSSKSTSGGTAALGCLVEDYFPEPVTVSWNSGALTSGVHTFPAVLQSSGLYSLSSVVTVPSSSLGTQTYICNVNHKPSNTKVDEKVEPKSCDKTHTCPPCPAPEAAGGPSVFLFPPKPKDTLMISRTPEVTCVVVDVSHEDPEVKFNWYVDGVEVHNAKTKPREEQYNSTYRVVSVLTVLHQDWLNGKEYKCKVSNKALGAPIEKTISKAKGQPREPQVCTLPPSRDELTKNQVSLSCAVKGFYPSDIAVEWESNGQPENNYKTTPPVLDSDGSFFLVSKLTVDKSRWQQGNVFSCSVMHEALHNHYTQKSLSLSPG
With B1 the EC50 [1] was 0.036 nM and the EC50 [2] was 7.52 nM.

B2: P1AE2895, CD40 (P1AE0817) x FAP (4B9) (4+1) C-terminal crossfab fusion (bispecific antibody, human IgG1, kappa)
light 1: EIVLTQSPGTLSLSPGERATLSCRASQSVTSSYLAWYQQKPGQAPRLLINVGSRRATGIPDRFSGSGSGTDFTLTISRLEPEDFAVYYCQQGIMLPPTFGQGTKVEIKSSASTKGPSVFPLAPSSKSTSGGTAALGCLVKDYFPEPVTVSWNSGALTSGVHTFPAVLQSSGLYSLSSVVTVPSSSLGTQTYICNVNHKPSNTKVDKKVEPKSC
light 2: B1 light 2 with R128E, K129Q
heavy 1: QVQLVQSGAEVKKPGASVKVSCKASGYSFTGYYIHWVRQAPGQSLEWMGRVIPNAGGTSYNQKFKGRVTLTVDKSISTAYMELSRLRSDDTAVYYCAREGIYWWGQGTTVTVSSASTKGPSVFPLAPSSKSTSGGTAALGCLVKDYFPEPVTVSWNSGALTSGVHTFPAVLQSSGLYSLSSVVTVPSSSLGTQTYICNVNHKPSNTKVDKKVEPKSCDGGGGSGGGGSQVQLVQSGAEVKKPGASVKVSCKASGYSFTGYYIHWVRQAPGQSLEWMGRVIPNAGGTSYNQKFKGRVTLTVDKSISTAYMELSRLRSDDTAVYYCAREGIYWWGQGTTVTVSSASTKGPSVFPLAPSSKSTSGGTAALGCLVKDYFPEPVTVSWNSGALTSGVHTFPAVLQSSGLYSLSSVVTVPSSSLGTQTYICNVNHKPSNTKVDKKV[… human IgG1 Fc with changes …]GGGGSGGGGSGGGGSGGGGSEVQLLESGGGLVQPGGSLRLSCAASGFTFSSYAMSWVRQAPGKGLEWVSAIIGSGASTYYADSVKGRFTISRDNSKNTLYLQMNSLRAEDTAVYYCAKGWFGGFNYWGQGTLVTVSSASVAAPSVFIFPPSDEQLKSGTASVVCLLNNFYPREAKVQWKVDNALQSGNSQESVTEQDSKDSTYSLSSTLTLSKADYEKHKVYACEVTHQGLSSPVTKSFNRGEC
heavy 2: B1 heavy 2 with E144K, E210K, E372K, E438K
Binder B2 has an EC50 [1] of 0.049 nM.
